In patent US20160136295A1 (published 2016):

How the values were obtained:
[1] = target: Mcl-1 peptide 111-130 (S121, E125); test: ELISA; unphosphorylated
[2] = target: Cyclin E peptide 372-390 (P-T380, P-S384); test: ELISA; phosphorylated T380/S384
[3] = target: Mcl-1 peptide 111-130 (P-S121, E125); test: ELISA; phosphorylated S121
Chain of Mcl-1 peptide 111-130 (P-S121, E125) (Q969H0 2-707): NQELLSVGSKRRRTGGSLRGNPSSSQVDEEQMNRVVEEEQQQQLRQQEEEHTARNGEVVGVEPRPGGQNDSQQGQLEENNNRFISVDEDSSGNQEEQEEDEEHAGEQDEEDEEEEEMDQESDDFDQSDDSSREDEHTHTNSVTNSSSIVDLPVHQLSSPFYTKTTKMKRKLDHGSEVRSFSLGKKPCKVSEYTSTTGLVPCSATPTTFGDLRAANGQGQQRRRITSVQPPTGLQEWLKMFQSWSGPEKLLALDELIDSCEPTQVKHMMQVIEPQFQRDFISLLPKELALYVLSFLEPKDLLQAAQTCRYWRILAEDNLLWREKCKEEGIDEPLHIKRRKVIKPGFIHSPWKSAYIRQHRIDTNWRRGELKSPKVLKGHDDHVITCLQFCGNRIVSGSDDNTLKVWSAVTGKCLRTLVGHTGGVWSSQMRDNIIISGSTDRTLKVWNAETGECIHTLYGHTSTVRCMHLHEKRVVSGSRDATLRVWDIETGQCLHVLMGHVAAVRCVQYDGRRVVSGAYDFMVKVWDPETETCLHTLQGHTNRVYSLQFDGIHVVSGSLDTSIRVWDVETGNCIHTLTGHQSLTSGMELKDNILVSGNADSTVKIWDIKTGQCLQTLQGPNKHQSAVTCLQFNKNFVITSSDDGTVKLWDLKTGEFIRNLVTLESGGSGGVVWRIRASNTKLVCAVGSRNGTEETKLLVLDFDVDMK

Chain of Cyclin E peptide 372-390 (P-T380, P-S384) (Q969H0 2-707): as above
Chain of Mcl-1 peptide 111-130 (S121, E125) (Q969H0 2-707): as above

Kd [1]: > 35 µM
Kd [2]: 370 nM
Kd [3]: 6.6 µM
B1: FBW7 (other)
chain: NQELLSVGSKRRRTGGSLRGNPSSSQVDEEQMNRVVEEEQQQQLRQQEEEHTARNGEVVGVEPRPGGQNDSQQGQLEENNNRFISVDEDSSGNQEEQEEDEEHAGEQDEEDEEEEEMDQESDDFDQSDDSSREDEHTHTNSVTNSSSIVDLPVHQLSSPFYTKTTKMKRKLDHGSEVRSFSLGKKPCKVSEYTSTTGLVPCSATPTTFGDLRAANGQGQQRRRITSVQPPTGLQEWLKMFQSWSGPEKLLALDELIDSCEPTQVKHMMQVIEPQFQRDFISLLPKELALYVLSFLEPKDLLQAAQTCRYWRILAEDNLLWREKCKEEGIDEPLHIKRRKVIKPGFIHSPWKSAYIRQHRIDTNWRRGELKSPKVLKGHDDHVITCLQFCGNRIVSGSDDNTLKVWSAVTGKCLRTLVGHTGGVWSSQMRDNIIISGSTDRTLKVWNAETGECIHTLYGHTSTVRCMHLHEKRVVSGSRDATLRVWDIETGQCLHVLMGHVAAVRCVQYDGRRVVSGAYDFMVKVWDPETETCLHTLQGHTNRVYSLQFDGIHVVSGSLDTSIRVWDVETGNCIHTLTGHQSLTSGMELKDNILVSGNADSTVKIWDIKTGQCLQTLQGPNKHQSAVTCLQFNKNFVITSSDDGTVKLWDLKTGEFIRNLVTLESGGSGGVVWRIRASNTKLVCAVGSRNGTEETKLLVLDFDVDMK
